In PMC12820563 one finds binding signal (RPM ratio (pull-down/input)) data, which are given here for 40 sequences.

The other results are listed elsewhere or left out. The list includes weakly bound sequences.

The test concerns the target T1, MBP-FoxP3dN (UniProt Q99JB6).
T1 sequence: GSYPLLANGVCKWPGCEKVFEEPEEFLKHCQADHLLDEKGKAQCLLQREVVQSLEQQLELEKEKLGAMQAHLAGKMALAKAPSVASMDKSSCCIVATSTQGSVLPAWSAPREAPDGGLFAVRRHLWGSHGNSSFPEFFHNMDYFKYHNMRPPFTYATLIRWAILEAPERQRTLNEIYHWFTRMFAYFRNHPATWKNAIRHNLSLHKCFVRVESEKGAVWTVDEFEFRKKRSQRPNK
The test is described as follows: PD-seq (MBP pull-down with sequencing). Conditions: 20 mM Tris-HCl pH 7.5, 100 mM NaCl, 1.5 mM MgCl2, 0.4 uM protein, 0.1 uM dsDNA library, 30 min, room temperature, amylose pull-down; high values mean tight binding; double strand, one strand shown.
On to “GATGATTGTTCTCCCAGCTGATGAATTTCGACCCTCGAGTAAACAAATTTTCCTAATCTTTCTGTTCAAGCGCCATCTAC”, for which the binding signal (RPM ratio (pull-down/input)) is 0.44.

Consider “GATGATTGTTCTCCCAGCTGATGAATTCAAAGCTTCGAGTAAACAAATTTTCCTAATCTTTCTGTTCAAGCGCCATCTAC”, for which the binding signal (RPM ratio (pull-down/input)) was 0.295.

Take “GATGATTGTTCTCCCAGCTGATGAATTCTGACGTTCGAGTAAACAAATTTTCCTAATCTTTCTGTTCAAGCGCCATCTAC”: the binding signal (RPM ratio (pull-down/input)) is 0.686. With “GATGATTGTTCTCCCAGCTGATGAATTTGAAGTTTCGAGTAAACAAATTTTCCTAATCTTTCTGTTCAAGCGCCATCTAC”, the binding signal (RPM ratio (pull-down/input)) was determined as 0.401. For “GATGATTGTTCTCCCAGCTGATGAATTCCAGGCTTCGAGTAAACAAATTTTCCTAATCTTTCTGTTCAAGCGCCATCTAC”, the binding signal (RPM ratio (pull-down/input)) worked out at 0.321.

In the case of “GATGATTGTTCTCCCAGCTGATGAATTACGATCATCGAGTAAACAAATTTTCCTAATCTTTCTGTTCAAGCGCCATCTAC”, the binding signal (RPM ratio (pull-down/input)) is 0.571. With “GATGATTGTTCTCCCAGCTGATGAATTGTTGCCCTCGAGTAAACAAATTTTCCTAATCTTTCTGTTCAAGCGCCATCTAC”, the binding signal (RPM ratio (pull-down/input)) amounted to 2.42. In the case of “GATGATTGTTCTCCCAGCTGATGAATTGCTAGCGTCGAGTAAACAAATTTTCCTAATCTTTCTGTTCAAGCGCCATCTAC” it was 0.81; in that of “GATGATTGTTCTCCCAGCTGATGAATTGCGGATGTCGAGTAAACAAATTTTCCTAATCTTTCTGTTCAAGCGCCATCTAC”, 0.793. “GATGATTGTTCTCCCAGCTGATGAATTACCCTGCTCGAGTAAACAAATTTTCCTAATCTTTCTGTTCAAGCGCCATCTAC”: the binding signal (RPM ratio (pull-down/input)) stood at 0.272. Take “GATGATTGTTCTCCCAGCTGATGAATTTAGCTATTCGAGTAAACAAATTTTCCTAATCTTTCTGTTCAAGCGCCATCTAC”: the binding signal (RPM ratio (pull-down/input)) worked out at 2.49. For the sequence “GATGATTGTTCTCCCAGCTGATGAATTAGTCATCTCGAGTAAACAAATTTTCCTAATCTTTCTGTTCAAGCGCCATCTAC”, the binding signal (RPM ratio (pull-down/input)) worked out at 2.33.

Regarding “GATGATTGTTCTCCCAGCTGATGAATTAGGCCACTCGAGTAAACAAATTTTCCTAATCTTTCTGTTCAAGCGCCATCTAC”, the binding signal (RPM ratio (pull-down/input)) stood at 4.87. The same measure for “GATGATTGTTCTCCCAGCTGATGAATTTGCTTTTTCGAGTAAACAAATTTTCCTAATCTTTCTGTTCAAGCGCCATCTAC”: 5.38; for “GATGATTGTTCTCCCAGCTGATGAATTTCGAATTTCGAGTAAACAAATTTTCCTAATCTTTCTGTTCAAGCGCCATCTAC”: 1.24; for “GATGATTGTTCTCCCAGCTGATGAATTCGCAGTGTCGAGTAAACAAATTTTCCTAATCTTTCTGTTCAAGCGCCATCTAC”: 0.747.

For the sequence “GATGATTGTTCTCCCAGCTGATGAATTAGAAGCTTCGAGTAAACAAATTTTCCTAATCTTTCTGTTCAAGCGCCATCTAC”, the binding signal (RPM ratio (pull-down/input)) stood at 0.31. In the case of “GATGATTGTTCTCCCAGCTGATGAATTCTACCCCTCGAGTAAACAAATTTTCCTAATCTTTCTGTTCAAGCGCCATCTAC”, the binding signal (RPM ratio (pull-down/input)) amounted to 0.269. The same measure for “GATGATTGTTCTCCCAGCTGATGAATTCCAGCCTTCGAGTAAACAAATTTTCCTAATCTTTCTGTTCAAGCGCCATCTAC”: 1.42. On to “GATGATTGTTCTCCCAGCTGATGAATTTACCTATTCGAGTAAACAAATTTTCCTAATCTTTCTGTTCAAGCGCCATCTAC”, for which the binding signal (RPM ratio (pull-down/input)) is 0.591. The same measure for “GATGATTGTTCTCCCAGCTGATGAATTCAGAGTTTCGAGTAAACAAATTTTCCTAATCTTTCTGTTCAAGCGCCATCTAC”: 1.17; for “GATGATTGTTCTCCCAGCTGATGAATTCGCATACTCGAGTAAACAAATTTTCCTAATCTTTCTGTTCAAGCGCCATCTAC”: 1.33. The same measure for “GATGATTGTTCTCCCAGCTGATGAATTTATCTGGTCGAGTAAACAAATTTTCCTAATCTTTCTGTTCAAGCGCCATCTAC”: 0.578. In the case of “GATGATTGTTCTCCCAGCTGATGAATTCGCGGTATCGAGTAAACAAATTTTCCTAATCTTTCTGTTCAAGCGCCATCTAC” it was 0.631; in that of “GATGATTGTTCTCCCAGCTGATGAATTAACTTCTTCGAGTAAACAAATTTTCCTAATCTTTCTGTTCAAGCGCCATCTAC”, 0.237. Consider “GATGATTGTTCTCCCAGCTGATGAATTGCTCAGTTCGAGTAAACAAATTTTCCTAATCTTTCTGTTCAAGCGCCATCTAC”, for which the binding signal (RPM ratio (pull-down/input)) turned out to be 0.462.

As to “GATGATTGTTCTCCCAGCTGATGAATTATACAGTTCGAGTAAACAAATTTTCCTAATCTTTCTGTTCAAGCGCCATCTAC”, the binding signal (RPM ratio (pull-down/input)) stood at 0.621. The same measure for “GATGATTGTTCTCCCAGCTGATGAATTCTGCGCATCGAGTAAACAAATTTTCCTAATCTTTCTGTTCAAGCGCCATCTAC”: 1.5; for “GATGATTGTTCTCCCAGCTGATGAATTATGTCTTTCGAGTAAACAAATTTTCCTAATCTTTCTGTTCAAGCGCCATCTAC”: 1.78. In the case of “GATGATTGTTCTCCCAGCTGATGAATTAACTGATTCGAGTAAACAAATTTTCCTAATCTTTCTGTTCAAGCGCCATCTAC”, the binding signal (RPM ratio (pull-down/input)) was determined as 0.354. Take “GATGATTGTTCTCCCAGCTGATGAATTTCAAGGGTCGAGTAAACAAATTTTCCTAATCTTTCTGTTCAAGCGCCATCTAC”: the binding signal (RPM ratio (pull-down/input)) stood at 0.206. In the case of “GATGATTGTTCTCCCAGCTGATGAATTTTGTGTATCGAGTAAACAAATTTTCCTAATCTTTCTGTTCAAGCGCCATCTAC” it was 6.55; in that of “GATGATTGTTCTCCCAGCTGATGAATTAGGTAGGTCGAGTAAACAAATTTTCCTAATCTTTCTGTTCAAGCGCCATCTAC”, 0.461; in that of “GATGATTGTTCTCCCAGCTGATGAATTGAAGAACTCGAGTAAACAAATTTTCCTAATCTTTCTGTTCAAGCGCCATCTAC”, 0.164. As to “GATGATTGTTCTCCCAGCTGATGAATTTGAACGTTCGAGTAAACAAATTTTCCTAATCTTTCTGTTCAAGCGCCATCTAC”, the binding signal (RPM ratio (pull-down/input)) came out at 0.366. In the case of “GATGATTGTTCTCCCAGCTGATGAATTGGGTTATTCGAGTAAACAAATTTTCCTAATCTTTCTGTTCAAGCGCCATCTAC” it was 1.43; in that of “GATGATTGTTCTCCCAGCTGATGAATTGCCTACGTCGAGTAAACAAATTTTCCTAATCTTTCTGTTCAAGCGCCATCTAC”, 0.553; in that of “GATGATTGTTCTCCCAGCTGATGAATTTTCGGGCTCGAGTAAACAAATTTTCCTAATCTTTCTGTTCAAGCGCCATCTAC”, 0.222.

For the sequence “GATGATTGTTCTCCCAGCTGATGAATTGTGTGCGTCGAGTAAACAAATTTTCCTAATCTTTCTGTTCAAGCGCCATCTAC”, the binding signal (RPM ratio (pull-down/input)) was 2.16. In the case of “GATGATTGTTCTCCCAGCTGATGAATTGAAGCTTTCGAGTAAACAAATTTTCCTAATCTTTCTGTTCAAGCGCCATCTAC” it was 0.758.
